The list shows a part of the results.

The subject of this assay is S. aureus RN4220. Nature of the assay: growth inhibition call (relative growth <= 0.2). Particulars: 50 µM.
In the case of `C[C@H]1CN([C@@H](C)CO)C(=O)Cc2cc(NS(=O)(=O)c3cccs3)ccc2O[C@@H]1CN(C)CC1CC1`, the growth inhibition call was “inactive”. With `O=C(CN1CCNCC1)NC1CCCCC1`, the growth inhibition call was “inactive”. As for `C[C@@H]1COS(=O)(=O)N1`, the entry is “inactive”. As for `Cc1noc(C)c1S(=O)(=O)Nc1ccc2c(c1)CC(=O)N([C@@H](C)CO)C[C@H](C)[C@H](CN(C)S(C)(=O)=O)O2`, the entry is “inactive”; as for `C[C@H](CO)N1C[C@H](C)[C@H](CN(C)S(=O)(=O)c2cn(C)cn2)Oc2ccc(NS(C)(=O)=O)cc2CC1=O`, “inactive”.

For the molecule `O=C1CCC(C(=O)O)N1` (configuration not stated), the growth inhibition call is “inactive”. As to `C[C@@H]1CCCCO[C@@H](CN(C)S(=O)(=O)c2ccc(Cl)cc2)[C@H](C)CN([C@@H](C)CO)C(=O)c2cc(NC(=O)Nc3ccc(C(F)(F)F)cc3)ccc2O1`, the growth inhibition call is “inactive”.

The values above are taken from the antibiotic and cytotoxicity screens of Wong et al. (2023).
